Several values for one entry are separate records, joined by “and”; a condition that tells them apart may be missing. Identical values can stand only once.
How the values were obtained:
[1] = tested on: benzodiazepine site on GABAA receptor; test: GABA shift experiment, [3H]-Ro15-1788 competition with/without 10 μM GABA; assay type: binding, rat; details: for GABA ratio (IC50 ratio without GABA/with GABA), column C: 10^-5 M GABA, rat cerebral cortex membranes; for GABA ratio: IC50 without GABA / IC50 with 10 μM GABA, 1 nM [3H]-Ro15-1788
benzodiazepine site [2] = details: 10^-5 M muscimol, rat cerebellar membranes; cited from earlier work
benzodiazepine site [3] = details: 10^-4 M GABA, rat cerebral cortex membranes; cited from earlier work
[4] = target: benzodiazepine site (BZD-S) of the GABAA receptor
[5] = tested on: benzodiazepine site (BZD-S) of the GABAA receptor; test: Radioligand receptor binding, displacement of [3H]-flunitrazepam (Example 1); details: for IC50: read-out: Inhibition of 3H-Flunitrazepam IC50, 1 nM [3H]-flunitrazepam, rat whole brain synaptosomal membrane

SMILES	GABA ratio (IC50 ratio without GABA/with GABA), column C [1]	GABA ratio (IC50 ratio without GABA/with GABA), column B (benzodiazepine site [2])	GABA ratio (IC50 ratio without GABA/with GABA), column A (benzodiazepine site [3])	Ki [4]	IC50 [5] [µM]	further results
CCCCOC(=O)c1cc2c(cn1)[nH]c1ccccc12 [BCCB, reference compound]	0.5	–	–	–	–	–
COC(=O)c1cc2c(cn1)[nH]c1ccccc12 [BCCM]	0.7	0.9	0.7	–	–	–
CCCOC(=O)c1cc2c(cn1)[nH]c1ccccc12 [BCCP]	–	1.1	1.0	–	–	–
COc1c(O)cc2oc(-c3ccccc3O)cc(=O)c2c1O [Compound 2, 5,7,2′-trihydroxy-6-methoxyflavone]	–	–	–	0.0076 µM	0.0096	fold difference in binding affinity ([5]; Compound 2 vs Compound 7 (K1)): 168 fold; GABA ratio [1]: 1.27
O=c1cc(-c2ccccc2O)oc2ccc(O)cc12 [Compound 3, 6,2′-dihydroxyflavone]	–	–	–	0.013 µM	0.017	fold difference in binding affinities ([5]; K1 0.013 μM vs Compound 12): over 900 fold; GABA ratio [1]: 0.89
O=c1cc(-c2ccccc2O)oc2ccc3ccccc3c12 [Compound 4, 2′-hydroxy-β-naphthoflavone]	–	–	–	0.044 µM	0.055	GABA ratio [1]: 1.06
O=c1cc(-c2ccccc2O)oc2ccccc12 [Compound 5, 2′-hydroxyflavone]	–	–	–	0.19 µM and 0.15 µM	0.19	fold difference in binding affinities ([5]; Compound 5 vs Compound 9): > 30 fold; fold difference in binding affinities ([5]; Compound 5 vs Compound 12 (K1)): 80 fold; GABA ratio [1]: 1.17
COc1c(O)c(OC)c2oc(-c3ccccc3)cc(=O)c2c1O [Compound 6, 5,7-dihydroxy-6,8-dimethoxyflavone]	–	–	–	0.29 µM	0.36	–
COc1c(O)cc(O)c2c(=O)cc(-c3ccccc3)oc12 [Compound 8, 5,7-dihydroxy-8-methoxyflavone]	–	–	–	2.19 µM	2.76	–
O=c1cc(-c2ccccc2)oc2ccccc12 [Compound 9, flavone]	–	–	–	5.44 µM	6.86	–
COc1ccccc1-c1cc(=O)c2cc(O)ccc2o1 [Compound 11, 6-hydroxy-2′-methoxyflavone]	–	–	–	11.5 µM	14.5	–
CCc1c(C(=O)OC)ncc2[nH]c3cc(OC)c(OC)cc3c12 [DMCM]	–	0.5	0.7	–	–	–
CNC(=O)c1cc2c(cn1)[nH]c1ccccc12 [FG 7142]	0.9	0.9	0.7	–	–	–
CN1C(=O)CN=C(c2ccccc2F)c2cc([N+](=O)[O-])ccc21 [Flunitrazepam]	1.9	2.5	3.3	–	–	–
CCOC(=O)c1ncn2c1CN(C)C(=O)c1cc(F)ccc1-2 [Ro15-1788]	0.9	1.2	1.1	–	–	–
CCOC(=O)c1ncn2c1CN(C)C(=O)c1cc(N=[N+]=[N-])ccc1-2 [Ro15-4513, reference compound]	0.9	–	–	–	–	–
CN1C(=O)CN=C(c2ccccc2F)c2cc([N+](=O)[O-])ccc21 [[^3H]-flunitrazepam, reference compound]	–	–	–	–	–	Kd ([5]; read-out: Kd, dissociation constant of [3H]-flunitrazepam from the high affinity binding site, saturation assay): 0.00386 µM

Source: patent US6740677B2, “Methods of treating benzodiazepine site (BZD-S) associated syndromes using 2′ hydroxyflavonoids” (priority 2002, dated 2004)
